Assay results reported in PMC5892938.
The list shows a part of the results. Construct or isoform of the protein are uncertain.

Biological target: GST-SBP-ILF3 (Homo sapiens) (UniProt Q12906)
Test: targeted RNA Bind-n-Seq
Details: RBNS binding buffer: 25 mM Tris pH 7.5, 150 mM KCl, 3 mM MgCl2, 0.1% Tween, 0.5 mg/mL BSA, 1 mM DTT; 27 nM protein, 750 pM RNA pool; temperature not stated; high values mean tight binding; sequences stand for … in GGGUAAAAGCGAGGUGAA…CGGGACAAGUAUUAUGGG

Sequence	binding signal (log2 fold change)
UUUUUUUUUUGAGAGCGAGCCGUUCUCCGG [tttttgagapaired]	0.416
UUUUUUUUUUGAGAUGGAUGCCAUCUCCUG [tttttgagapaired]	0.177
UUUUUUUUUUGAGACUGAGCCAGUCUCCUA [tttttgagapaired]	0.372
UUUUUUUUUUGAGACGGUUGCCGUCUUCUA [tttttgagapaired]	0.363
GUGUGUGGUGUUGGCUCCUAACACCGCGCA [gtspaired]	-0.546
UUUUUUUUUUGAGAGCGGCACGCUCUCCUG [tttttgagapaired]	0.0299
GUGGUUGGUGUUGGACUCUAACACCAGCCG [gtspaired]	-1.03
UUUUUUUUUUGAGAUGGGAUCCAUCUCCUG [tttttgagapaired]	0.161
GUGUGUUGUGUUGGCGUCUAACACAGCGCA [gtspaired]	-0.559
UUUUUUUUUUGAGACGGCAACCGUCUCCGG [tttttgagapaired]	0.553
GUGUUGUGUGUUGGCCUCUAACACACAGCA [gtspaired]	-0.585
UUUUUUUUUUGAGAUGGGCUCCAUCUUCUG [tttttgagapaired]	0.693
UUUUUUUUUUGAGAGCGGGACGUUCUCCUA [tttttgagapaired]	0.473
UUUUUUUUUUGAGAGUGUGUCAUUCUCCUA [tttttgagapaired]	0.179
GUGUGUUGUGUUGGCUUCUAACACAGCGCA [gtspaired]	-0.791
GUGUGUGGUGUUGGUAUCUAACACCGCGCG [gtspaired]	-0.509
GGUUGGUGUGUUGGCAUCUAACACAUCAGC [gtspaired]	-0.588
UUUUUUUUUUGAGAUGGCCGCCAUCUCCUA [tttttgagapaired]	0.644
GUGGUGUGUGUUGGUCCCUAACACACAUCA [gtspaired]	-0.727
UUUUUUUUUUGAGACUGGGACAGUCUUCUA [tttttgagapaired]	0.247
UUUUUUUUUUGAGACCGCAGCGGUCUCCUA [tttttgagapaired]	0.508
UUUUUUUUUUGAGAUGGCGACCAUUUCCAG [tttttgagapaired]	0.745

Sequence	binding signal (log2 fold change)
UUUUUUUUUUGAGAGCGGGCCGCUCUCCAG [tttttgagapaired]	0.634
UUUUUUUUUUGAGAGGGGCCCCCUCUCCGG [tttttgagapaired]	1.09
UUUUUUUUUUGAGAUGGCUACCAUCUUCUA [tttttgagapaired]	0.228
UUUUUUUUUUGAGAUGGUAUCCAUCUCCUA [tttttgagapaired]	0.00176
UUCUCUCUUCCUCCACAGGAGGAGGAGGGA [ctspaired]	-0.592
GUUGUGUGUGUUGGAUCCUAACACACGCAA [gtspaired]	-0.073
GUGUGGUGUGUUGGUGUCUAACACACUAUA [gtspaired]	-0.737
GUGUGGUGUGUUGGAGCCUAACACACUACG [gtspaired]	-0.858
UUUUUUUUUUGAGACGGAGUCUGUCUUCUG [tttttgagapaired]	0.438
UUUUUUUUUUGAGACCGAGUCGGUCUCCAG [tttttgagapaired]	0.93
UUUUUUUUUUGAGACGGACACCGUCUCCUA [tttttgagapaired]	0.453
UUUUUUUUUUGAGAGCGGAACGCUCUCCGG [tttttgagapaired]	-0.212
UUUUUUUUUUGAGAUGGUGUCCAUUUCCUA [tttttgagapaired]	0.556
UUUUUUUUUUGAGACGGUUUCCGUCUCCAG [tttttgagapaired]	0.323
UUUUUUUUUUGAGAUCGGGUCGAUCUUCUA [tttttgagapaired]	0.162
UUUUUUUUUUGAGACCGUAUCGGUCUCCGG [tttttgagapaired]	0.128
UUUUUUUUUUGAGAUCGUAUCGAUCUCCUA [tttttgagapaired]	0.0622
UUUUUUUUUUGAGAUGGGUGCCAUCUCCAG [tttttgagapaired]	0.407
UUUUUUUUUUGAGAUCGAGGCGAUUUCCAG [tttttgagapaired]	0.433
UUUUUUUUUUGAGACGGUAGCCGUUUCCGG [tttttgagapaired]	0.627
UUUUUUUUUUGAGACUGGGUCAGUCUUCUG [tttttgagapaired]	0.532
UUUUUUUUUUGAGACGGCUGCCGUCUCCUA [tttttgagapaired]	0.918

Sequence	binding signal (log2 fold change)
UUUUUUUUUUGAGAACGGUACGUUCUCCUA [tttttgagapaired]	0.313
UUUUUUUUUUGAGACGGUGACCGUCUCCUG [tttttgagapaired]	0.448
GUGUUGUGUGUUGGCAUCUAACACACAACG [gtspaired]	-0.593
UUUUUUUUUUGAGACCGAAGCGGUCUCCUG [tttttgagapaired]	0.376
UUUUUUUUUUGAGAUGGUUGCCAUCUCCGG [tttttgagapaired]	0.363
UUUUUUUUUUGAGACGGGGGCCGUUUCCAG [tttttgagapaired]	0.92
UUUUUUUUUUGAGACUGCGGCAGUCUCCUA [tttttgagapaired]	0.588
UUUUUUUUUUGAGAGGGAAACCCUCUCCGG [tttttgagapaired]	-0.0119
UUUUUUUUUUGAGACGGCAGCCGUCUCCUG [tttttgagapaired]	0.92
GUGGUUGGUGUUGGCUUCUAACACCAAUCA [gtspaired]	-0.6
UUUUUUUUUUGAGACUGAUUCAGUCUCCUA [tttttgagapaired]	-0.0489
UUUUUUUUUUGAGAUGGUAGCCAUCUUCUA [tttttgagapaired]	-0.00089
GUUGGUGGUGUUGGUCUCUAACACCGCCAG [gtspaired]	-0.268
GUGGUGUGUGUUGGACUCUAACACACAUCG [gtspaired]	-0.622
UUUUUUUUUUGAGAACGGUGCGUUCUCCGG [tttttgagapaired]	0.305
UUUUUUUUUUGAGACAGUAAUAAUAAAAAA [ttttgagaunpaired]	0.0861
UUUUUUUUUUGAGAGCGGUCCGCUCUCCGG [tttttgagapaired]	0.798
UUUUUUUUUUGAGAGUGAUGCACUCUCCAG [tttttgagapaired]	0.217
UUUUUUUUUUGAGAUCGAUUCGAUCUUCUA [tttttgagapaired]	-0.362
UUCCUUCUUCCUCCAAUGGAGGGAGAGGGA [ctspaired]	-0.62
GGUGUUGGUGUUGGAUCCUAACACCAGCGC [gtspaired]	-0.476
